In the supplement of paper PMC11417369:
The other results are listed elsewhere or left out.

System: PfAP2-HC AP2 domain (GST-tagged)
Assay: gcPBM binding intensity (ln(normalized median fluorescence intensity)); higher = stronger DNA binding
Summary of the method: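 Binding intensity is the highest Masliner-normalised natural-log median intensity over replicate spots in either probe orientation. To obtain it, GST-tagged P. falciparum DNA-binding domains made in E. coli were incubated for 1 h on an Agilent 4 × 180k array of primer-extended double-stranded 36-bp intergenic genomic probes plus negative controls. Detection used Alexa488 anti-GST antibody with scanning at 488 nm.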

Sequence | gcPBM binding intensity (ln)
AGTTAATTAATAGGCACACATATATATGTATAAATA [CACACA_site523] | 9.8
GTAAGAATATTTATAAATGTATAATTTGTATTATTT [GTGCAC_negctrl_site667] | 9.59
TAAAATATCATAGATAGTACATATAACGTTTTATAT [XGTACX_site5666] | 9.68
ATCGAAATTTTAGAATATATATGATGTTACTTAAGT [GTGCAC_negctrl_site611] | 9.5
CATGACATAAAAAATATACACACTATAATATATATA [CACACA_site1402] | 9.87
TATATATCTATATTTACACACAGTTACTATGTAGAT [CACACA_site7532] | 9.85
GTTAAACTTAATATCGGTACACACACAAGATAAGAA [XGTACX_site1660] | 10.7
ATAATATGTATAATCACACATTTTTCTTTTAAGACA [CACACA_site5297] | 9.59
ACCATATAAATAAACACACACACACCCATATATATA [CACACA_site2321] | 10.6
GGTTCATTAAAGTGTACACATAAATACCGTAACATT [CACACA_site6002] | 9.69
CTAAGGTATGATTAATCACACACATAAATATATATA [CACACA_site8847] | 10.1
GTGGCTACTATATATTGTACGATATTATATATATAC [XGTACX_site8376] | 9.84
AGAATAAGAATTATTAGTACTTATAAATATTATATT [XGTACX_site7228] | 9.43
TAATTTAAAATATATAGTACACACGTGAACACAAAT [XGTACX_site792] | 10
CTATTACATTAAATGTGTACATATATATATATATAT [XGTACX_site5233] | 9.82
GTAAATACACATATGTGTACATATATATATATATAT [XGTACX_site3696] | 9.89
TTCTTTAAAAAATTCGATAAAAAAAAAAAAAGAAAA [CACACA_negctrl_site242] | 9.31
TATATACTCATGCGCACACACAAGTGGGAAATTTGG [CACACA_site5056] | 10.2
ATATACATATATATTGCATGCAGAGAGTATTTATAA [TGCATGCA_site646] | 9.71
ATATATATATATATTGTGCACAAAAAAAAATAAGCA | 9.95
ATATATTATAGGTACACACACATATAAGGGATTATA [CACACA_site6154] | 10.4
GGAAAGACAGTTCACAGTACCCAGGAAATCTACGGA [XGTACX_site1996] | 9.62

Sequence | gcPBM binding intensity (ln)
CTTTGTAGTATATTAACACACAACTGTTTATAATAT [CACACA_site6038] | 9.92
TATATATATATTTAGTGTACTTAAAAAAAATAATAA [XGTACX_site5454] | 9.57
ATAATAATAAAATATATATACAAAGGTGAAATTATA [TGCATGCA_negctrl_site197] | 9.81
TATTTTTTTTTCCATTGTACATTTTTGATATTTTTC [XGTACX_site744] | 9.8
TTATTAAATATGTACACACGTACATTTTATAAATGA [CACACA_site2387] | 9.56
GGAAAATCTAATCATTTAATATTTATTTATCTAATT [GTGCAC_negctrl_site553] | 9.34
ATTTTATATAATACATGTACAAAAGTTTAAATTTAT [XGTACX_site6196] | 9.73
TATAAATACTAAAAAAGTACAAAATTTCATAAAAAA [XGTACX_site2709] | 9.61
TTCTTTATTTATCATTATAAGAAGAGTTGATTTGTT [XGTACX_negctrl_site555] | 9.44
TTATAATATAGCAATTATTAAATAGGATCAAATGAA [CACACA_negctrl_site632] | 9.52
AACAAATTTATCCAAAGTACAAAATATCATTTCTTA [XGTACX_site4543] | 9.56
AACAACATGTAGACGCGTACCAACATCAGATCCTAT [XGTACX_site4071] | 9.86
ATTATAATTATATATGCATGTAGCATTTTCTATTTT [TGCATGCA_site66] | 9.72
ATATAAGAAATAAAGAAAAATGTGTTTTTTTTTTTT [XGTACX_negctrl_site396] | 9.6
AGAGCTGTTTTTTATGCATGTAGTTTAGAAAATACA [TGCATGCA_site257] | 9.31
TTTATCTTATTTTTATGTACTTATTTTATAAAAAAA [XGTACX_site7730] | 9.42
TTTTTCCTAACATATTATATACTTGAATATTTATTA [CACACA_negctrl_site156] | 9.62
AAACAAATATTTATCACAATGTCATTTTGTTAACAT [GTGCAC_negctrl_site171] | 9.63
TATTTGTAAATTATTTGGGTGTGTAGGGGATATTCT [XGTACX_negctrl_site204] | 9.8
CGTTCATATTATTATAGTACATATTATTATAGTTTT [XGTACX_site1550] | 9.85
TTTTTTTTTTTATTTGCATGCGGTGTTCATAATATT [TGCATGCA_site199] | 9.63
TTGGTGGATAAATTTACACACAATAACTTTCGTTCA [CACACA_site6358] | 9.74
